These results are taken from ChEMBL document CHEMBL1201862, “PubChem BioAssay data set” (2004).

SMILES strings stand for the structures.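 All cell lines were grown in 96-well plates and treated with compound for 48 hours. Here, GI50 denotes the concentration required for 50% inhibition of growth.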 Activity calls are given as the source filed them. No stated cut-off is given here; in the data, active = GI50 up to about 1.1 µM and inactive = higher.

In this test the test system is NCI-H322M. Kind of test: DTP human tumour cell line panel, 48 h.
As for `CCC12CCCN3CCc4c(n(c5ccccc45)C(O)(C(=O)OC)C1)C32` (stereo unspecified), the GI50 was inactive: > 100 µM.

`COC(=O)C1(Cc2ccc3c(c2)CCC3)Cc2ccc3c(c2C1=O)CCC3` (stereo unspecified): the GI50 is inactive: 36.1 µM.

For `CC(=O)Nc1ccccc1Sc1ccccc1`, the GI50 is inactive: > 100 µM.

With `CN1C2C=CC(=O)C1C(C#N)C2` (stereo unspecified), the GI50 is inactive: 68.2 µM.

Consider `O=C(COc1ccc(OCC(=O)N2C(=O)CC(=O)N(c3ccccc3)C2=S)cc1)N1C(=O)CC(=O)N(c2ccccc2)C1=S`, for which the GI50 is inactive: 79.1 µM.

In the case of `CCOC(=O)/C=C/c1cccc(F)c1`, the GI50 was inactive: > 100 µM.

Regarding `N#Cc1c(Cl)cc(C#N)n2c1nc1ccccc12`, the GI50 was inactive: 24.3 µM.

As for `c1ccc(CNCCCCNCCCNCc2ccccc2)cc1`, the GI50 is inactive: 21.7 µM.

As for `CCOP(=O)(OCC)C(C)(CC)N/C(=N\C1=NC(C(F)(F)F)(C(F)(F)F)N=C(C(F)(F)F)O1)NC(NC(C)=O)(C(F)(F)F)C(F)(F)F` (stereo unspecified), the GI50 is inactive: 42.4 µM.

`O=C1c2ccccc2C(=O)N1CC1(C(=O)O)NCCS1(=O)=O` (stereo unspecified): the GI50 is inactive: > 100 µM.

Turning to `C=C1C(=O)C([Si](C)(C)C)=C2C=C(C)C3(CC3)C12C` (stereo unspecified), the GI50 was inactive: > 100 µM.

For `O=C1CC(=O)NC(NN2C(=O)/C(=C/C(=O)c3ccco3)N=C2c2ccccc2)=N1`, the GI50 was inactive: > 100 µM.

For `C#C[C@]1(O)CC[C@H]2[C@@H]3CCC4=C/C(=N/CCOC(=O)c5cccc6c(=O)c7ccccc7[nH]c56)CC[C@@H]4[C@H]3CC[C@@]21C`, the GI50 was inactive: 50.4 µM.

As to `O=c1ssc(Cl)c1Cl`, the GI50 was inactive: > 10 µM.

`COc1ccccc1OCC(COC(=O)Nc1ccc(C)cc1)OC(=O)Nc1ccc(C)cc1` (stereo unspecified): the GI50 was inactive: 46.2 µM.

For the compound `CN(C(=O)c1ccccc1)C1CCCC(=O)CC1` (stereo unspecified), the GI50 is inactive: > 100 µM.

For `O=c1oc2ccccc2cc1-c1nnc(-c2ccccc2)s1`, the GI50 was inactive: > 79.1 µM.

Consider `O=c1[nH]c(=O)n([C@H]2C[C@@H](CO)[C@@H](O)C2)cc1I`, for which the GI50 is inactive: > 100 µM.

As to `COC(=O)c1c(C)[nH]c2c1cc(O)c1nc(C)c(C)nc12`, the GI50 is inactive: 31.2 µM.

For `O=S(=O)(Nc1ccccc1S(=O)(=O)c1ccccc1)c1ccccc1`, the GI50 was inactive: > 100 µM.

`CC(C)(C)COC1C2(OCCO2)C2CCC1(C)C2(C)C` (stereo unspecified): the GI50 was inactive: > 100 µM.

Take `CCOc1ncn(-c2ccc(NC(=S)NC3OC(CO)C(O)C(O)C3O)cc2)n1` (stereo unspecified): the GI50 is inactive: > 100 µM.

For `O=C1c2ccccc2C2(c3ccc(Cl)cc3)NCc3ccccc3CN12` (stereo unspecified), the GI50 is inactive: 15.8 µM.

Take `COc1ccc(C[N+]23C(CC[C@H]2c2ccccc2)CC[C@H]3c2ccccc2)cc1` (stereo partly specified): the GI50 was inactive: 33.5 µM.

Turning to `CC(=O)Oc1c(-c2ccccc2)oc2ccccc12`, the GI50 was inactive: 3.76 µM.

In the case of `C[N+](C)(C)CCCSc1nc2ccccc2[nH]1`, the GI50 was inactive: > 100 µM.

As to `CCOC(=O)c1ccc2c(c1)Cc1cc([N+](=O)[O-])ccc1-2`, the GI50 was inactive: 92 µM.

Take `S=C(/N=C1/NCC(CN2CCN(c3ccccc3)CC2)O1)Nc1ccccc1` (stereo unspecified): the GI50 was inactive: > 100 µM.

Regarding `CC1(C)C(=O)C(O)=CC2C1=CCC1C2(C)C(=O)CC2(C)C(C(C)(O)C(=O)CC(O)C(C)(C)O)C(O)CC12C` (stereo unspecified), the GI50 is inactive: 24.4 µM.

On to `COC12C(COC(=O)NCCO)C3=C(C(=O)C(C)=C(N)C3=O)N1CC1NC12` (stereo unspecified), for which the GI50 was inactive: 42 µM.

For `CCN(CC)CSc1nc2ccccc2[nH]1`, the GI50 is inactive: > 100 µM.

Consider `Nc1nc2c(ncn2Cc2ccccc2CO)c(=O)[nH]1`, for which the GI50 is inactive: > 100 µM.

Consider `COc1cc2ncnc(NS(=O)(=O)c3cc4ccccc4s3)c2cc1OC`, for which the GI50 is inactive: > 100 µM.

In the case of `CCOC(=O)NC(=O)c1cn(CCCOC(=O)CCCCCCCCC(=O)OCCCn2cc(C(=O)NC(=O)OCC)c(=O)[nH]c2=O)c(=O)[nH]c1=O`, the GI50 was inactive: 30.3 µM.

In the case of `CC(=O)Nc1ccc(C(=O)N[C@@H]2C(=O)N3[C@@H]2SC(C)(C)[C@@H]3C(=O)O)cn1`, the GI50 was inactive: > 100 µM.

On to `O=[N+]([O-])c1ccc(-c2cn(-c3ccc(Cl)cc3)cn2)cc1`, for which the GI50 is inactive: 73.8 µM.

For `COC(=O)c1cccn1C(=O)n1cccc1`, the GI50 is inactive: > 100 µM.

With `Nc1nc(N)c2ncn(-c3ccccc3)c2n1`, the GI50 is inactive: > 100 µM.

In the case of `O=C(NC(=S)NC(=O)c1cc(O)c(O)c(O)c1)c1cc(O)c(O)c(O)c1`, the GI50 is inactive: 21 µM.

In the case of `N#Cc1c(N)nc2c(C#N)c(N)cc3c2c1Oc1ccccc1-3`, the GI50 was inactive: > 100 µM.

As to `CC(=O)c1ccc2c(c1)CC1(C2)Cc2cc3c(cc2C1=O)CCC3` (stereo unspecified), the GI50 is inactive: 30.7 µM.

For `CN/C(=N\C#N)N(Cc1ccccc1)Cc1ccccc1`, the GI50 is inactive: > 100 µM.

Consider `O=C(/C=C\Nc1ccccc1O)C(F)(F)F`, for which the GI50 was inactive: > 100 µM.

Take `COc1ccc(C(=O)C2CC3(CCC2(O)c2ccc(OC)cc2)CC(=O)Nc2ccccc2C3=O)cc1` (stereo unspecified): the GI50 was inactive: > 100 µM.

As to `Cc1ccc2c(=O)[nH]sc2c1`, the GI50 was inactive: 45.6 µM.

`Cc1cccc(-c2nc(-c3cnccn3)n(Cc3ccccc3)n2)c1`: the GI50 was inactive: > 100 µM.

With `O=c1[nH][nH]c(=O)n1/N=C/c1ccccc1`, the GI50 was inactive: > 100 µM.

`CCOC(=O)Cc1cnc(NC(NC(=O)CC)(C(F)(F)F)C(F)(F)F)s1`: the GI50 was inactive: > 100 µM.

With `COC1=NC(NC2OCC(O)C(O)C2O)=C(NC(C)=O)CN1C` (stereo unspecified), the GI50 was inactive: > 100 µM.

Regarding `CN(C)C(=O)Nc1c([N+](=O)[O-])cc(C(F)(F)F)cc1[N+](=O)[O-]`, the GI50 is inactive: 96.8 µM.

With `C=C1CC(C#N)(C#N)[C@@H]2CC3CCCC3[C@H]12.C=C1CC(C#N)(C#N)[C@H]2C3CCCC3C[C@@H]12` (stereo partly specified), the GI50 was inactive: 42.3 µM.

Turning to `COCN1C(=O)[C@@H]2CCCN2C(=O)c2ccc(Cl)cc21`, the GI50 was inactive: > 100 µM.

Take `CC(=O)OC1COC(n2nc(N)nc2C)C(OC(C)=O)C1OC(C)=O` (stereo unspecified): the GI50 is inactive: > 100 µM.

As to `S=C1Cc2c([nH]c3ccccc23)-c2ccccc2N1`, the GI50 was inactive: 29.2 µM.

`O=S(=O)(O)c1c(/N=N/c2c(O)ccc3ccccc23)ccc2ccccc12`: the GI50 is inactive: > 100 µM.

Turning to `O=C1C=CC[C@H]2O[C@@H](COC(=O)Cc3ccccc3)C[C@H]2O1`, the GI50 was inactive: 31.4 µM.

As for `O=C(O)c1ccc2c(c1)CC1(C2)Cc2ccccc2C1=O` (stereo unspecified), the GI50 was inactive: > 100 µM.

Consider `CCN(CC)C1CC(O[C@H]2C[C@](O)(C(=O)CO)Cc3c(O)c4c(c(O)c32)C(=O)c2c(OC)cccc2C4=O)OC(C)C1O` (stereo partly specified), for which the concentration for 50% growth inhibition (GI50) is active: 0.0148 µM.

`C(=C\c1cc[n+](CCc2ccccc2)cc1)/c1ccccc1`: the GI50 was inactive: 18.2 µM.

As for `N#C[C@](CO)(NC(=O)OCc1ccccc1)C(F)F`, the GI50 was inactive: > 100 µM.

Take `O=C(/C=C1\Sc2ccccc2N=C1CC(=O)c1ccccc1)c1ccccc1`: the GI50 is inactive: 14.2 µM.

`NC(=O)c1cn(C2OC(CO)C(O)C2O)c2nc[n+]([O-])c(N)c12` (stereo unspecified): the GI50 was active: 0.174 µM.

As for `O=C(Nc1ccc(Cl)cc1)C1C(=O)C(=O)N(c2ccc(Cl)cc2)C1=O` (stereo unspecified), the GI50 is inactive: 90.4 µM.

On to `c1ccc2c(c1)[nH]c1c2nc2ncccn21`, for which the GI50 is inactive: > 100 µM.

As for `c1ccc(C(=NNc2cnc3ccccc3n2)c2ccccn2)cc1`, the GI50 was inactive: 2.26 µM.

Consider `COc1ccccc1/C=N/C12CC3CC(CC(C3)C1)C2`, for which the GI50 is inactive: > 100 µM.

For the compound `N#C/C(=C\c1ccncc1)c1csc2ccccc12`, the GI50 is inactive: 30.1 µM.

Turning to `Cc1ccc(C)c(COCCOCn2cc(Br)c(N)nc2=O)c1`, the GI50 was inactive: > 100 µM.

With `C=CCN(C(=O)OC(C)(C)C)C1=CC2C(C)=CN(S(=O)(=O)c3ccccc3)C2C(OCc2ccccc2)=C1` (stereo unspecified), the GI50 was inactive: > 100 µM.

Regarding `O=[N+]([O-])c1ncc(N(CCO)CCO)s1`, the GI50 was inactive: > 100 µM.

With `COc1cc2c(cc1OC)C1CCc3ccccc3CN1CC2` (stereo unspecified), the GI50 is inactive: > 100 µM.

As to `CCCc1c2c([nH]c(=O)c1C)C(=O)c1[nH]c(=O)c(C)c(CCC)c1C2=O`, the GI50 is inactive: 12.9 µM.

For the compound `CCOC(=O)CC1(O)CCCCC1(Sc1ccc(C)cc1)Sc1ccc(C)cc1` (stereo unspecified), the GI50 was inactive: 70.6 µM.

In the case of `COC(=O)/C=C\COCC1C2CCC(=O)C21` (stereo unspecified), the GI50 is inactive: > 25 µM.

`COc1ccc([S+]([O-])Cc2cc(OC)c(OC)c(OC)c2)cc1` (stereo unspecified): the GI50 was inactive: > 100 µM.

Consider `Cc1[nH]c(=O)[nH]c(=S)c1C(=O)NC(C)(CO)CO`, for which the GI50 was inactive: > 100 µM.

With `CCOC(=O)[C@H]1Nc2ccc(C)cc2C2c3ccccc3CC21` (stereo partly specified), the GI50 is inactive: > 100 µM.

For the compound `NC(Cc1ccccc1)(C(=O)O)C(=O)O`, the GI50 is inactive: > 100 µM.

As to `N=C(N)NC(CC(=O)O)c1ccccc1` (stereo unspecified), the GI50 is inactive: > 100 µM.

Turning to `O=C(N/N=C/c1cc(Br)cc(Br)c1O)c1ccccc1O`, the GI50 is inactive: 1.49 µM.

For the compound `Clc1ccc(Cc2nc3ccccc3o2)cc1`, the GI50 is inactive: > 100 µM.

With `C=C1C(=O)OC2/C=C(\C=O)CC/C=C(\C)C(O)C[C@@H]12` (stereo partly specified), the GI50 was inactive: 15.8 µM.

`C=C[C@]1(C)CC(O)C2C(=C)C(=O)OC2[C@H]1C(=C)C=O` (stereo partly specified): the GI50 was inactive: 11.9 µM.

For the compound `CC(C)C1CC(O)O[C@@H]([C@@H](C)[C@H]2CC(=O)[C@@H]3[C@@H]4[C@@H](O)[C@H](O)[C@H]5[C@@H](O)[C@H](O)CC[C@]5(C)[C@H]4CC[C@]23C)C1` (stereo partly specified), the GI50 is inactive: 59 µM.

In the case of `NCC(O)CSCc1ccc(Cl)cc1` (stereo unspecified), the GI50 is inactive: > 100 µM.

Take `NS(=O)(=O)c1ccc(/C=C/c2ccc(O)cc2)cc1`: the GI50 was inactive: 63.2 µM.

In general, GI50 refers to the concentration that inhibits growth by half.
